Source: PubChem BioAssay AID652104 (National Center for Advancing Translational Sciences (NCATS), 2013)
Out of some 410,000 compounds screened, about 7,200 (1.8%) were called active. The inconclusive results got no clear call from the source; some entries with a clear call stand among them for comparison. Calls come from the whole dose curve; as a rule, active = well fitted activation curve with a large enough effect; inconclusive = small, poorly fitted or top-dose-only effect, or another doubt; inactive = no such curve, though single readings can be large or run the other way. Potencies of inconclusive entries are left out as doubtful fits.

Experiment: qHTS of TDP-43 Inhibitors; note: nearly all actives have a fitted effect of over 50% in size; for growth rescue (activation): % of control where 0% means no effect
Details: TDP-43 expressing yeast growth rescue, BacTiter-Glo, 24 h; growth rescue (activation): at 46.1 µM (top of the series) unless noted
How it was run: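 Readout is BacTiter-Glo luminescence of cell growth, so inhibitors register as activators. TDP-43-expressing yeast at OD600=0.02 in galactose medium, after raffinose pregrowth to mid-log, were incubated with compound for 24 hr at 30 deg C.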
Potency is the fitted concentration of half-maximal effect; tags give direction and shape of the fitted curve.

SMILES | Potency | growth rescue (activation)
CCN(CC(=O)Nc1c(F)cccc1F)C(=O)c1cccn1C | inconclusive [activator, full curve, poor fit] | –
CN(C)c1ccc(/C=C/C(=O)c2ccccc2)cc1[N+](=O)[O-] | inconclusive [activator, partial curve] | –
Cc1ccc(C(=O)NCC(c2cccs2)S(=O)(=O)c2ccccc2)cc1C (stereo not given) | – | inactive: 16.9%
O=C(OCC(=O)N(CCc1ccccc1)Cc1ccccc1)c1ccccc1NCCO | inconclusive [activator, partial curve] | –
Cc1ccc(S(=O)(=O)N2CCC(C(=O)N[C@@H](C)C(=O)NCC3CCCO3)CC2)cc1 (stereo not given in full) | inconclusive [activator, partial curve] | –
COC(=O)c1nnn(CC(=O)Nc2c(C)cccc2C)c1N | inconclusive [activator, full curve] | –
Cc1ccccc1-c1nc(NCC2CC2)nc2ccsc12 | inconclusive [activator, single point] | –
CCN(CC)c1ccc(C2NC(=O)c3ccccc3N2)cc1 (stereo not given) | inconclusive [activator, partial curve] | –
Cc1ccc(Cc2c(-c3ccccc3)nc3ccc(Br)cn23)cc1 | active: 22.4 µM | –
S=C(NC1CCCC1)N1CCN(C/C=C/c2ccccc2)CC1 | – | inactive: -7.49%
O=S(=O)(c1c(F)cccc1F)N(CCc1ccc(F)cc1)C[C@@H](O)COCc1ccccc1 | inconclusive [activator, full curve, poor fit] | –
C=CCc1ccccc1OCc1nc2ccc(C)cc2[nH]1 | inconclusive [activator, partial curve] | –
COC(=O)c1cccc(CSC(=S)N2CCCC2)c1 | inconclusive [activator, partial curve] | –
COc1ccc(-c2cc(N)n(S(=O)(=O)Cc3ccccc3)n2)c(OC)c1 | inconclusive [activator, partial curve] | –
CCOC(=O)c1ccc(NC(=O)C(=O)NCC2CCCO2)cc1 (stereo not given) | – | inactive: -28.8%
CC1(C)Cc2c(cnn2-c2ccc(F)cc2)C(NC(=O)c2cnccn2)C1 (stereo not given) | inconclusive [activator, partial curve] | –
O=C1c2ccccc2N2C(=O)c3ccccc3C2N1Cc1ccco1 (stereo not given) | inconclusive [activator, partial curve] | –
N/C(=N\C(=S)Nc1ccccc1)c1ccccc1 | – | inconclusive: 122% [activator]
COc1cccc(NC(=O)CN(C)C(=O)c2cc(-c3ccc(F)cc3)nc3ccccc23)c1 | inconclusive [activator, single point] | –
Cc1ccc2nc(Cl)c(C#N)cc2c1 | inconclusive [activator, partial curve] | –
CC(=O)c1ccc(NC(=O)COc2ccc3c(c2)OCO3)cc1 | – | inactive: 25.7% [at 9.22 µM]
c1ccc(N2CC3COc4ccccc4C3=N2)cc1 (stereo not given) | inconclusive [activator, partial curve] | –
N#Cc1ccccc1COC(=O)c1ccc2c(c1)OCCO2 | inconclusive [activator, single point] | –
O=C(Nc1ccc(S(=O)(=O)N2CCOCC2)cc1)c1ccc(Cl)cc1 | inconclusive [activator, partial curve] | –

SMILES | Potency | growth rescue (activation)
O=C(C1CCN(S(=O)(=O)c2ccc3ccccc3c2)CC1)N1CCN(c2ncccn2)CC1 | active: 20 µM | –
Cc1ccc(NC(=O)Nc2cn(C)c(=O)c3ccccc23)c(Cl)c1 | inconclusive [activator, partial curve] | –
O=C1CSCC(=O)N1Cc1ccc(Cl)cc1Cl | inconclusive [activator, single point] | –
CCc1ccccc1NC(=O)c1ccc(Cn2nc(N3CCN(c4ccccc4)CC3)ccc2=O)o1 | inconclusive [activator, single point] | –
Fc1ccccc1NC(=S)Nc1ccc(Br)cc1 | active: 12.6 µM | –
Cc1nc(SCC(=O)N(C)C2(C#N)CCCCC2)c2ccccc2n1 | inconclusive [activator, partial curve] | –
COc1cc(C(=O)Nc2ccc(Cl)c(C(F)(F)F)c2)cc(OC)c1OC | active: 17.8 µM | –
Cc1ccc2c(c1)-c1ccccc1S(=O)(=O)N2 | inconclusive [activator, single point] | –
Cc1ccc(Oc2ncnc(N)c2[N+](=O)[O-])cc1C | active: 11.2 µM | –
CCCSc1ncc(Cl)c(C(=O)N2CCN(c3cccc(Cl)c3)CC2)n1 | inconclusive [activator, single point] | –
S=C1CSc2ccccc2N1 | inconclusive [activator, partial curve] | –
COc1ccc(NS(=O)(=O)c2cccc3cccnc23)cc1 | inconclusive [activator, single point] | –
CCCOc1ccc(F)cc1-c1cc(C(=O)Nc2ccc(OC)nc2)[nH]n1 | inconclusive [activator, partial curve] | –
O=C1c2ccccc2/C(=C\c2ccc3[nH]ccc3c2)N1c1ccccc1 | inconclusive [activator, single point] | –
Cc1ccc(NC2Nc3cc(C)nn3S2)c(C)c1 (stereo not given) | inconclusive [activator, partial curve] | –
CCOC(=O)c1cc2cc(OCc3ccccc3)ccc2nc1C | inconclusive [activator, full curve, poor fit] | –
CCC(=O)N1CCc2cc(CNS(=O)(=O)c3ccc(C(C)C)cc3)ccc21 | active: 20 µM | –
Cc1nn(-c2ccccc2)c2sc(C(=O)Nc3cccc(Cl)c3)cc12 | inconclusive [activator, partial curve] | –
COc1cc2nc(NCCc3ccccc3)n3nc(-c4cccnc4)nc3c2cc1OC | – | inactive: 9.4%
COC(=O)c1ccc2c(=O)n(CCCCCC(=O)N3CCN(c4cc(C)ccc4C)CC3)c(=O)[nH]c2c1 | – | inactive: -6.77%
CCc1ccccc1NC(=O)COc1ccc(C(=S)N2CCCC2)cc1 | inconclusive [activator, single point] | –
COC(=O)c1ccc(Nc2nc(-c3ccccc3Cl)nc3ccccc23)cc1 | inconclusive [activator, partial curve] | –
COCCCNc1ccn2nc(-c3ccccc3)cc2n1 | inconclusive [activator, partial curve] | –
CCCCc1cc(=O)oc2c(CN3CCCC3)c(O)c(Cl)cc12 | inconclusive [activator, partial curve] | –

SMILES | Potency | growth rescue (activation)
CCOc1ccccc1C(=O)N/N=C/c1c[nH]c2ccccc12 | inconclusive [activator, partial curve] | –
COc1ccc(NC(=S)NCCSc2ccc(C)cc2)c(OC)c1 | inconclusive [activator, partial curve] | –
c1ccc(-c2c[nH]c3[n+]2CCCCC3)cc1 | – | inactive: 0.194%
COc1ccc2nc(NC(=O)C3CCN(S(=O)(=O)c4cccc5nsnc45)CC3)sc2c1 | inconclusive [activator, single point] | –
Cc1cc(Cl)cc(C)c1OCC(=O)N1CCN(c2ncccn2)CC1 | active: 12.6 µM | –
Cc1ccccc1NC(=O)CNc1ccccc1N1CCCCC1 | inconclusive [activator, partial curve] | –
CCCCCCNC(=O)c1c[nH]c2ccc(S(=O)(=O)N(C)c3ccc(C(C)C)cc3)cc2c1=O | – | inactive: 7.8%
COc1ccc(N2CCN(C3(c4ccccc4)C(=O)c4ccccc4C3=O)CC2)cc1 | – | inactive: 9.82%
COc1ccc(-n2ccnc2SCC(=O)Nc2cccc(OC)c2)cc1 | inconclusive [activator, partial curve, poor fit] | –
CC(=O)Nc1ccc(-c2ccnc3c2CC(C)(C(=O)Nc2ccc(Cl)c(C(F)(F)F)c2)O3)cc1 (stereo not given) | active: 35.5 µM | –
Cc1onc(-c2c(Cl)cccc2Cl)c1C(=O)c1ccccc1 | inconclusive [activator, partial curve] | –
CCOc1ccc(CCNC(=O)COC(=O)c2oc3ccccc3c2COC)cc1OCC | inconclusive [activator, partial curve] | –
Cc1ccc(N(C)C(CNS(=O)(=O)c2ccccc2)c2ccccc2)cc1 (stereo not given) | inconclusive [activator, single point] | –
COc1ccc(S(=O)(=O)Cc2ccc(C(=O)N3CCN(c4cccc(C)c4C)CC3)o2)cc1 | active: 25.1 µM | –
Cc1cc(OC(C)C(=O)N2CCC(c3nc4ccccc4o3)CC2)ccc1Cl (stereo not given) | active: 25.1 µM | –
Cc1ccc(/C=C/C(=O)N2CCC(c3nc4ccccc4o3)CC2)cc1 | – | inactive: 5.74%
Cc1cc(C)c(C#N)c(Nc2ccc(F)cc2)n1 | inconclusive [activator, partial curve] | –
COCC(=O)Nc1nc2n(n1)C(c1ccccc1)CC(c1ccc(OC)cc1)N2 (stereo not given) | – | inactive: -0.661%
COc1ccc(NC(=O)c2c(NCc3ccc(OC)c(OC)c3OC)sc3c2CCC3)c(OC)c1 | – | inactive: 13%
S=C(Nc1cccc(Cl)c1)NC1CCCCC1 | inconclusive [activator, single point] | –
COc1ccccc1NC(=O)CSc1ccc(-c2ccco2)nn1 | inconclusive [activator, partial curve] | –
O=C(NCc1cccnc1)C1CCCCN1S(=O)(=O)c1ccc(F)cc1 (stereo not given) | inconclusive [activator, single point] | –
